Bridge positions count the residues as written; N and C are the ends. Square brackets hold non-standard residues; d marks the D form. Peptide text beside a SMILES is read from it. Abu = CC[C@H](N)C(=O)O
What was measured:
C. elegans iPGM = C. elegans iPGM (Caenorhabditis elegans, UniProt G5EFZ1); assay: PGM enzyme assay (enolase–pyruvate kinase coupled, Kinase-Glo Plus end point) and IC50 determination; format: biochemical; conditions: Ce iPGM Ave IC50 (M), 5 nM enzyme
B. malayi iPGM = B. malayi iPGM (Brugia malayi, UniProt Q4VWF8); assay: biochemical; conditions: Bm iPGM Ave IC50 (M), 5 nM enzyme
O. volvulus iPGM = O. volvulus iPGM (Onchocerca volvulus, UniProt I6LDA6); assay: biochemical; conditions: Ov iPGM Ave IC50 (M), 5 nM enzyme
[1] = Supplementary Table 4b, Ce-2d analogs
[2] = Supplementary Table 4a, Ce-2 analogs, average of N=2-3 independent experiments

UniProt I6LDA6, sequence (I6LDA6 whole entry): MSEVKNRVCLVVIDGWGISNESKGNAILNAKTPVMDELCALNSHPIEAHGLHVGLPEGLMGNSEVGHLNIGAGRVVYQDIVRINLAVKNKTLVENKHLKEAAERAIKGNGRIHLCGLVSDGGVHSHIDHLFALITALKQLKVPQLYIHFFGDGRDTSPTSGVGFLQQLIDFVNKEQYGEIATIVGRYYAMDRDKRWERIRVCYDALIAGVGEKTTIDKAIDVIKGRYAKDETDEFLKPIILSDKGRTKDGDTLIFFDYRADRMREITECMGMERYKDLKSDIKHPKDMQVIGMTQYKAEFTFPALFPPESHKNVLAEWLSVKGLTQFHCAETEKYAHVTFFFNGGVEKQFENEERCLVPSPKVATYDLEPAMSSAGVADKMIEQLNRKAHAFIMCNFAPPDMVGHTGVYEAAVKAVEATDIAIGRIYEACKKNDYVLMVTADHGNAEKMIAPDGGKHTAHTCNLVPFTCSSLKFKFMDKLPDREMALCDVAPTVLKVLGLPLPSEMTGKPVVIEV
UniProt Q4VWF8, sequence (Q4VWF8 whole entry): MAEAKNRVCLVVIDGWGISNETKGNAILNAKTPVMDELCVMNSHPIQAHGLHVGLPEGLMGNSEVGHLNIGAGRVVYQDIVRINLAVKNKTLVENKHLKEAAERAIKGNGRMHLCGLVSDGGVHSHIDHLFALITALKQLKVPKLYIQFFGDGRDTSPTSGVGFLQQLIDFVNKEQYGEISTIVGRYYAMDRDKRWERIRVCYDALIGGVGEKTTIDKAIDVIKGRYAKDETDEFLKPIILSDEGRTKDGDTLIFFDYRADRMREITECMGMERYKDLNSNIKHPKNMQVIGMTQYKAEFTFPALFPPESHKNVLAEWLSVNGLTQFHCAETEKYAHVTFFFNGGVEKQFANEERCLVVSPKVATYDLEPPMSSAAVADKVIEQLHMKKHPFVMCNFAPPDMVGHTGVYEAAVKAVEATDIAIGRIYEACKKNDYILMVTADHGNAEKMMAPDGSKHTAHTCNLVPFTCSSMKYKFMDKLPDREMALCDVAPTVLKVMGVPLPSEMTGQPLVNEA

SMILES: CC(C)C[C@H](NC(=O)[C@H](Cc1ccc(O)cc1)NC(=O)[C@@H]1CSCC(=O)N[C@H](Cc2ccc(O)cc2)C(=O)N[C@@H](CC(=O)O)C(=O)N[C@@H](Cc2ccc(F)cc2)C(=O)N2CCC[C@H]2C(=O)NCC(=O)N[C@@H](CC(=O)O)C(=O)N[C@@H](Cc2ccc(O)cc2)C(=O)N1)C(=O)N[C@@H](Cc1ccc(O)cc1)C(N)=O [Ce-2d Y3(4F)F]
- IC50 (C. elegans iPGM; [1]): 3.76e-08 M
- IC50 (B. malayi iPGM; [1]): 9.19e-08 M
- IC50 (O. volvulus iPGM; [1]): 3.76e-07 M

SMILES: CC(C)C[C@H](NC(=O)[C@H](Cc1ccc(O)cc1)NC(=O)[C@@H]1CSCC(=O)N[C@H](Cc2ccc(O)cc2)C(=O)N[C@@H](CC(=O)O)C(=O)N[C@@H](Cc2ccccc2)C(=O)N2CCC[C@H]2C(=O)NCC(=O)N[C@@H](CC(=O)O)C(=O)N[C@@H](Cc2ccc(O)cc2)C(=O)N1)C(=O)N[C@@H](Cc1ccc(O)cc1)C(N)=O [Ce-2d Y3F]
- IC50 (C. elegans iPGM; [1]): 4.42e-07 M
- IC50 (B. malayi iPGM; [1]): 3.8e-06 M
- IC50 (O. volvulus iPGM; [1]): 1.22e-05 M

SMILES: CC(C)C[C@H](NC(=O)[C@H](Cc1ccc(O)cc1)NC(=O)[C@@H]1CSCC(=O)N[C@H](Cc2ccc(O)cc2)C(=O)N[C@@H](C(C)C)C(=O)N[C@@H](Cc2ccc(O)cc2)C(=O)N2CCC[C@H]2C(=O)NCC(=O)N[C@@H](CC(=O)O)C(=O)N[C@@H](Cc2ccc(O)cc2)C(=O)N1)C(=O)N[C@@H](Cc1ccc(O)cc1)C(N)=O [Ce-2d D2V]
- IC50 (C. elegans iPGM; [1]): 6.61e-08 M
- IC50 (B. malayi iPGM; [1]): 4.55e-07 M
- IC50 (O. volvulus iPGM; [1]): 1.29e-06 M

SMILES: CC(C)C[C@H](NC(=O)[C@H](Cc1ccc(O)cc1)NC(=O)[C@@H]1CSCC(=O)N[C@H](Cc2ccc(O)cc2)C(=O)N[C@@H](CC(=O)O)C(=O)N[C@@H](Cc2ccc(O)cc2)C(=O)N2CCC[C@H]2C(=O)NCC(=O)N[C@@H](CC(=O)O)C(=O)N[C@@H](Cc2ccc(O)cc2)C(=O)N1)C(=O)N[C@@H](Cc1ccc(O)cc1)C(=O)NCCCC(=O)N[C@@H](CS)C(N)=O [Ce-2 [12-13]GABA]
- IC50 (C. elegans iPGM; [2]): 1.49e-09 M
- IC50 (B. malayi iPGM; [2]): 3.12e-09 M
- IC50 (O. volvulus iPGM; [2]): 4.02e-09 M

SMILES: COc1ccc(C[C@@H]2NC(=O)[C@H](CC(=O)O)NC(=O)CNC(=O)[C@@H]3CCCN3C(=O)[C@H](Cc3ccc(O)cc3)NC(=O)[C@H](CC(=O)O)NC(=O)[C@@H](Cc3ccc(O)cc3)NC(=O)CSC[C@@H](C(=O)N[C@@H](Cc3ccc(O)cc3)C(=O)N[C@@H](CC(C)C)C(=O)N[C@@H](Cc3ccc(O)cc3)C(N)=O)NC2=O)cc1 [Ce-2d Y7(4OMe)F]
- IC50 (C. elegans iPGM; [1]): 5.69e-09 M
- IC50 (B. malayi iPGM; [1]): 5.15e-08 M
- IC50 (O. volvulus iPGM; [1]): 1.61e-07 M

SMILES: CC[C@@H]1NC(=O)[C@@H](Cc2ccc(O)cc2)NC(=O)CSC[C@@H](C(=O)N[C@@H](Cc2ccc(O)cc2)C(=O)N[C@@H](CC(C)C)C(=O)N[C@@H](Cc2ccc(O)cc2)C(=O)NCC(=O)N[C@H](C(=O)N[C@@H](CS)C(N)=O)[C@@H](C)O)NC(=O)[C@H](Cc2ccc(O)cc2)NC(=O)[C@H](CC(=O)O)NC(=O)CNC(=O)[C@@H]2CCCN2C(=O)[C@H](Cc2ccc(O)cc2)NC1=O [Ce-2 D2Abu] ({CH2CO}-[dY][Abu]YPGDYCYLYGTC-NH2; thioether N-8)
- IC50 (C. elegans iPGM; [2]): 1.85e-09 M
- IC50 (B. malayi iPGM; [2]): 1.37e-09 M
- IC50 (O. volvulus iPGM; [2]): 2.24e-09 M

SMILES: CC(C)C[C@H](NC(=O)[C@H](CC(C)C)NC(=O)[C@H](Cc1ccc(O)cc1)NC(=O)[C@@H]1CSCC(=O)N[C@H](Cc2ccc(O)cc2)C(=O)N[C@@H](CC(=O)O)C(=O)N[C@@H](Cc2ccc(O)cc2)C(=O)N2CCC[C@H]2C(=O)NCC(=O)N[C@@H](CC(=O)O)C(=O)N[C@@H](Cc2ccc(O)cc2)C(=O)N1)C(N)=O [Ce-2d Y11L]
- IC50 (C. elegans iPGM; [1]): 1.23e-08 M
- IC50 (B. malayi iPGM; [1]): 1.89e-07 M
- IC50 (O. volvulus iPGM; [1]): 7.21e-07 M

SMILES: CC(C)C[C@H](NC(=O)[C@H](Cc1ccc(O)cc1)NC(=O)[C@@H]1CSCC(=O)N[C@H](Cc2ccc(O)cc2)C(=O)N[C@@H](CC(=O)O)C(=O)N[C@@H](Cc2ccc(O)cc2)C(=O)N2CCC[C@H]2C(=O)NCC(=O)N[C@@H](CC(=O)O)C(=O)N[C@@H](Cc2ccc(F)cc2)C(=O)N1)C(=O)N[C@@H](Cc1ccc(O)cc1)C(=O)NCC(=O)N[C@H](C(=O)N[C@@H](CS)C(N)=O)[C@@H](C)O [Ce-2 Y7(4F)F]
- IC50 (C. elegans iPGM; [2]): 1.79e-09 M
- IC50 (B. malayi iPGM; [2]): 1.42e-09 M
- IC50 (O. volvulus iPGM; [2]): 2.28e-09 M

SMILES: CC(C)C[C@H](NC(=O)[C@H](Cc1ccc(O)cc1)NC(=O)[C@@H]1CSCC(=O)N[C@H](Cc2ccc(O)cc2)C(=O)N[C@@H](CC(=O)O)C(=O)N[C@@H](Cc2ccc(O)cc2)C(=O)N2CCC[C@H]2C(=O)NCC(=O)N[C@@H](CC(N)=O)C(=O)N[C@@H](Cc2ccc(O)cc2)C(=O)N1)C(=O)N[C@@H](Cc1ccc(O)cc1)C(N)=O [Ce-2d D6N]
- IC50 (C. elegans iPGM; [1]): 3.81e-07 M
- IC50 (B. malayi iPGM; [1]): 3.72e-06 M
- IC50 (O. volvulus iPGM; [1]): 9.41e-06 M

SMILES: CC(C)C[C@@H]1NC(=O)[C@H](Cc2ccc(O)cc2)NC(=O)[C@H](CS)NC(=O)[C@H](Cc2ccc(O)cc2)NC(=O)[C@H](CC(=O)O)NC(=O)CNC(=O)[C@@H]2CCCN2C(=O)[C@H](Cc2ccc(O)cc2)NC(=O)[C@H](CC(=O)O)NC(=O)[C@@H](Cc2ccc(O)cc2)NC(=O)CSC[C@@H](C(N)=O)NC(=O)[C@H]([C@@H](C)O)NC(=O)CNC(=O)[C@H](Cc2ccc(O)cc2)NC1=O [Ce-2 [Y1-->C14]]
- IC50 (C. elegans iPGM; [2]): 2e-06 M
- IC50 (B. malayi iPGM; [2]): 1.59e-05 M
- IC50 (O. volvulus iPGM; [2]): 5.2e-06 M

SMILES: COc1ccc(C[C@H](NC(=O)[C@@H]2CSCC(=O)N[C@H](Cc3ccc(O)cc3)C(=O)N[C@@H](CC(=O)O)C(=O)N[C@@H](Cc3ccc(O)cc3)C(=O)N3CCC[C@H]3C(=O)NCC(=O)N[C@@H](CC(=O)O)C(=O)N[C@@H](Cc3ccc(O)cc3)C(=O)N2)C(=O)N[C@@H](CC(C)C)C(=O)N[C@@H](Cc2ccc(O)cc2)C(N)=O)cc1 [Ce-2d Y9(4OMe)F]
- IC50 (C. elegans iPGM; [1]): 3.79e-08 M
- IC50 (B. malayi iPGM; [1]): 1.2e-06 M
- IC50 (O. volvulus iPGM; [1]): 3.27e-06 M

Source: PMC8113725, “Structure–activity relationship of ipglycermide binding to phosphoglycerate mutases” (The Journal of Biological Chemistry, 2021)
